# Laboratory results from PubChem BioAssay AID1476 (National Center for Advancing Translational Sciences (NCATS), 2009).
# About 4,500 (2.2%) of roughly 200,000 compounds were called active. Inconclusive means that the source gave no clear call. Such entries were picked first, then a sample of the others. Calls follow the shape of the dose curve; as a rule, active = well fitted inhibition curve with a large enough effect; inconclusive = small, poorly fitted or top-dose-only effect, or effect the other way; inactive = flat fitted curve, though single readings scatter. Potencies of inconclusive entries are doubtful fits and often do not repeat.
# Target: Cruzipain (Trypanosoma cruzi) (UniProt P25779)
# Assay: qHTS Assay for Promiscuous and Specific Inhibitors of Cruzain (without detergent); also: nearly all actives have a fitted effect of over 40% in size;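 as to max response, negative = inhibition: plate controls were enzyme without inhibitor for no effect and buffer without enzyme for full effect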
# Settings: purified cruzain, Z-FR-AMC fluorescence, no detergent
# In short: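 Purified cruzain at 1.5 nM, pre-incubated 15 min with compound at room temperature in 100 mM sodium acetate pH 5.5, 5 mM DTT, 0.00005% Triton X-100. Reaction started with 2 uM Z-FR-AMC; AMC fluorescence increase over 60 s gives rate.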
# Potency is read from the fitted curve at half-maximal effect; tags tell the direction and shape of the fitted curve.
# Chain of UniProt P25779 (P25779 whole entry, looked up): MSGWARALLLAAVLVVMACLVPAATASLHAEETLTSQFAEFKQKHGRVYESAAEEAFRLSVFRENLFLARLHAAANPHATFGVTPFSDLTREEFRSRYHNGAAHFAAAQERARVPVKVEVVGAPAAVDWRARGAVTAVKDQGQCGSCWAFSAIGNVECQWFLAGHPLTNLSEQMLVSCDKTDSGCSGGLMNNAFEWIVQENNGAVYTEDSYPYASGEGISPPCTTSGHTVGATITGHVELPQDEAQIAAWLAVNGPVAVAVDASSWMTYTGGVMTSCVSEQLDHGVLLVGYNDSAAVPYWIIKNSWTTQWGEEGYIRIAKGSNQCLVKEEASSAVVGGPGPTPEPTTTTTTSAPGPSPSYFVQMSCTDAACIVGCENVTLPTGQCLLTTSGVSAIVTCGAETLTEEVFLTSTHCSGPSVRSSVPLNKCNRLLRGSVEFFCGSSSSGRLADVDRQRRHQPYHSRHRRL
Compound,Potency,"max response, negative = inhibition"
COc1cccc(CNC(=O)CN2C(=O)N(c3ccc(C)cc3C)S(=O)(=O)c3ccccc32)c1OC,"inconclusive: 25.1 µM [activator, single point]",–
Cc1ccc(-c2nc3c4ccccc4n(CC(=O)NCc4ccc(F)cc4)c(=O)n3n2)cc1,–,inactive: 27.1%
COc1cccc(C2CC(c3cccs3)=NN2C(=S)Nc2ccccc2)c1OC (stereo not drawn),"inconclusive: 39.8 µM [inhibitor, single point]",–
O=C(CCCCn1c(=O)c2ccccc2n(Cc2cccc(F)c2)c1=O)NCc1ccc2c(c1)OCO2,–,inactive: 3.54%
Cc1cccc(C)c1N1CCN(c2nc(N(C)C)oc(=O)c2C#N)CC1,"inconclusive: 39.8 µM [activator, single point]",–
CCc1sc(N(C(=O)Cc2ccccc2)c2cccc(F)c2)nc1-c1ccc(C)cc1,"inconclusive: 31.6 µM [inhibitor, single point]",–
Cc1ccc(OCC(=O)NCC(c2ccc(Cl)cc2)N2CCOCC2)cc1C (stereo not drawn),"inconclusive: 31.6 µM [activator, single point]",–
COc1ccc(C)cc1NC(=O)c1cnc2ccc(C)cn2c1=O,–,inactive: -3.29%
CCC1=C2CC[C@H]3C(=O)N(C)C(=O)[C@H]3[C@H]2[C@@]2(Cc3ccccc3)C(=NCCc3c[nH]c4ccccc34)OC(=O)N2C1=O,"inconclusive: 39.8 µM [activator, single point]",–
Cc1cc(C(=O)NCC(=O)OCC(=O)N(C)C2CCCCC2)ccc1[N+](=O)[O-],"inconclusive: 31.6 µM [inhibitor, single point]",–
Cc1ccc(NC(=O)Nc2c[nH]c(=O)[nH]c2=O)c(Cl)c1,"inconclusive: 39.8 µM [inhibitor, single point]",–
CCOc1ccc(/C=C2/SC(=O)NC2=S)cc1,"inconclusive: 39.8 µM [inhibitor, single point]",–
CCOc1ccc(N/N=C(/C#N)C(N)=O)cc1,–,inactive: -20.8%
COC(=O)[C@@]1(Cc2ccccc2)[C@H]2c3cc(C(=O)N(C)C)n(CCF)c3C[C@H]2CN1C(=O)c1ccccc1,"inconclusive: 31.6 µM [activator, single point]",–
COc1ccccc1-c1nnc(SCC(=O)NCc2c(C)c(Cl)cc(C(C)C)c2O)o1,"inconclusive: 39.8 µM [activator, single point]",–
CN(C)c1cccc(C(=O)Nc2nc3ccc(S(=O)(=O)N4CCCC4)cc3s2)c1,–,inactive: -24.4%
Cc1cc(NS(=O)(=O)c2ccc(NC(=O)C(CC(C)C)N3C(=O)c4ccccc4C3=O)cc2)nc(C)n1 (stereo not drawn),"inconclusive: 31.6 µM [activator, single point]",–
CCCCOc1ccc(C(=O)Nc2ccc(N3CCN(C(C)=O)CC3)cc2)cc1,"inconclusive: 15.8 µM [activator, partial curve]",–
O=[N+]([O-])c1cc2c(cc1/C=N/Nc1nc(Nc3ccccc3)nc(N3CCCCC3)n1)OCO2,"inconclusive: 31.6 µM [inhibitor, single point]",–

Compound,Potency,"max response, negative = inhibition"
Cc1cc(C)n2nc(SCc3cc(=O)oc4ccc5ccccc5c34)nc2n1,"inconclusive: 39.8 µM [activator, single point]",–
Cn1cccc1C(=O)N1CCC2(CC1)CCN(c1ncccn1)CC2,–,inactive: 5.2%
COc1ccc(C(=O)Nc2c(Cl)cc(Cl)cc2C(=O)NCc2ccco2)cc1,"inconclusive: 31.6 µM [inhibitor, single point]",–
Cc1cccc(NC(=O)/C(=C/c2cccc([N+](=O)[O-])c2)NC(=O)c2cccs2)c1,"inconclusive: 39.8 µM [inhibitor, single point]",–
CCc1ccc(CCC(=O)Nc2nc(CC(C)=O)ns2)o1,"inconclusive: 31.6 µM [activator, single point]",–
Cc1c(O)nc(SCC(=O)Nc2ccc3c4c(cccc24)CC3)n(-c2ccccc2)c1=O,"inconclusive: 39.8 µM [activator, single point]",–
C=CCc1cccc([C@@H]2[C@@H](C)CC[C@H]3C(=O)N4[C@@H](c5cc(OC)c(OC)c(OC)c5)c5[nH]c6ccccc6c5C[C@H]4C(=O)N23)c1,"inconclusive: 31.6 µM [activator, single point]",–
COCCCn1cnc2c(c1=O)c1nc3ccccc3nc1n2-c1ccc(C)cc1,"inconclusive: 39.8 µM [activator, single point]",–
O=C(CCn1c(=O)c2sccc2n(CC(=O)Nc2ccccc2)c1=O)NCc1ccccc1Cl,"inconclusive: 39.8 µM [inhibitor, single point]",–
C/C(=N\NC(=O)CSc1nc(C)cc(C)n1)c1cccc([N+](=O)[O-])c1,"inconclusive: 39.8 µM [inhibitor, single point]",–
CC(C(=O)N1c2ccccc2CCc2ccccc21)n1nnc(-c2ccc(N(C)C)cc2)n1 (stereo not drawn),"inconclusive: 31.6 µM [inhibitor, single point]",–
C=CCOc1cccc(/C=N/NC(=O)CN(c2cc(Cl)ccc2OC)S(=O)(=O)c2ccc(C)c([N+](=O)[O-])c2)c1,"inconclusive: 20 µM [inhibitor, partial curve]",–
COc1ccc(-c2cc(C(=O)n3cnc4ccccc43)c3ccccc3n2)cc1,"inconclusive: 39.8 µM [inhibitor, single point]",–
CC(C)OCCCNC(=O)c1ccc(Cn2c(=O)c3cccn3c3cccnc32)cc1,–,inactive: 19.7%
COC(=O)c1c(NC(=O)c2nc3nc(C)cc(C(F)F)n3n2)sc2c1CCC2,"inconclusive: 39.8 µM [activator, single point]",–
O=C(c1cc(Br)ccc1O)c1cc(Br)ccc1O,–,inactive: 8.23%
Cc1ccc2c(nc3s/c(=C/c4cccs4)c(=O)n32)c1C,active: 15.8 µM,–
Cc1ccc(-n2nc(C)c3c(C(=O)OCC(=O)N(C)C4CCS(=O)(=O)C4)cc(-c4ccccc4)nc32)cc1 (stereo not drawn),"inconclusive: 39.8 µM [activator, single point]",–
Cc1cc(Cn2cnc3c2C[C@@H](C(=O)O)N(C(=O)C(c2ccccc2)c2ccccc2)C3)ccc1N(C)C,"inconclusive: 39.8 µM [activator, single point]",–
